Results on 40 sequences are retold here after PMC6451091.

This is one part of the list. For part of these data: At the low end of the ranking, values are background and their order means little. For part of these data: The protein was read in a cell extract, so binding may be indirect.

One assay has as its target PU.1 (IVT) (UniProt P17947). Put plainly: protein-binding microarray (PBM). To be noted: 20 mM HEPES pH 7.9, 100 mM NaCl, 1 mM DTT, 0.2 mg/mL BSA, 0.02% Triton X-100, 2% milk, 0.4 mg/mL salmon testes DNA; 1 h; temperature not stated; high values mean tight binding; double strand, one strand shown; sequences stand for … in GCCTAGCAC…GTGCTAGGTCTTGATTCGCTTGACGCTGCTG
Sequence GGGAAGGGGAAGTGAGGAGT returned a binding signal of 4.95 z-score.

ACAAAGAGGAACTGTGCCCC yielded a binding signal of 4.4 z-score.

GAAAACAGGAAGTGTTGGTG: the binding signal was 7.78 z-score.

Consider AACAACAGGAAGTGGCTCCT, for which the binding signal came to 4.3 z-score.

Sequence TGGGAGAGGAAGTGATGAGC showed a binding signal of 4.01 z-score.

For GAAAGCAGGAAGTGTGTTAT, the binding signal amounted to 4.63 z-score.

Sequence GAAAAGAGGAACCGTATGGT registered a binding signal of 5.79 z-score.

In the case of AAAAAGAGGAAGGGAGTAGA, the binding signal is 4.77 z-score.

With CAGATGAGGAAATGGAGTTT, the binding signal amounted to 2.93 z-score.

AAAAAGAGGAAGAGGAGGAG had a binding signal of 5.1 z-score.

AAAAAAAGGAAGTGCTTCAA: the binding signal amounted to 7.35 z-score.

The sequence TGGGGGAGGAAGTGAGAGAC came in with a binding signal of 3.27 z-score.

In turn, GGGAGGAGGAAGTGCAGGGG displayed a binding signal of 4.11 z-score.

As to ACAAAAAGGAACTGTGCCGC, the binding signal was 1.9 z-score.

TGGATGAGGAACTGGGGCCC came in with a binding signal of 2.61 z-score.

As to GCAAAGGGGAACTGGACTGT, the binding signal is 3.71 z-score.

Turning to TGAAAGAGGAAGGGCAACCA, the binding signal worked out at 3.15 z-score.

On to AAAAAAGGGAAGTGATGTAC, for which the binding signal came out at 7.43 z-score.

On to ACGATGAGGAAGTGGTTAGT, for which the binding signal amounted to 5.44 z-score.

Regarding GTTATGAGGAAGTCTGAATA, the binding signal was 4.61 z-score.

CAAAAGAGGAACTCTTTGGT yielded a binding signal of 7.01 z-score.

In turn, GTTAAAGGGAAGTCCCCAAA came in with a binding signal of 3.13 z-score.

Turning to AGAAAAAGGAAGTGGATTAA, the binding signal was determined as 5.66 z-score.

AAAAAAAGGAAGTGATGTAC had a binding signal of 7.37 z-score.

AAGAAGAGGAAGTCAGATCA: the binding signal was determined as 6.19 z-score.

For the sequence GATAAGAGGAAGTACTCTGT, the binding signal amounted to 7.44 z-score.

GGAAAAAGGAAGTCCTGTCA displayed a binding signal of 4.96 z-score.

The sequence CAAATGAGGAACTGCTGCGG displayed a binding signal of 5.83 z-score.

CAAAAGAGGAAGAGTCTGAC displayed a binding signal of 4.26 z-score.

Consider CAAATGCGGAACTGATGCGG, for which the binding signal worked out at 5.74 z-score.

Sequence TGAAAGAGGAAGTCCCTTCT returned a binding signal of 7.21 z-score.

In turn, GTATTCAGGAACTACTGTGC returned a binding signal of 2.13 z-score.

Take AGGAGGAGGAAGTGGAGAGT: the binding signal was 4.5 z-score.

In the case of AAAATCAGGAAGTGTTTGAG, the binding signal was 6.3 z-score.

GCAAAGGGGAAGTGGAGACT: the binding signal amounted to 5.65 z-score.

Sequence CGAAAAGGGAAGTGGATGCT yielded a binding signal of 6.21 z-score.

CGAATGAGGAACTGATGCGG yielded a binding signal of 5.03 z-score.

GATAAGAGGAAGTCCTCGGT: the binding signal came out at 5.92 z-score.

In the case of GAAAGGAGGAAGTGGGAAGG, the binding signal came out at 5.77 z-score.

In the case of GATAAGAGGAAGTCTTCTGT, the binding signal came out at 5.71 z-score.

In the next assay the target is PU.1 (endogenous, THP-1 nuclear extract) (UniProt P17947). Briefly: nuclear extract protein-binding microarray (nextPBM). The following applies: 20 mM HEPES pH 7.9, 100 mM NaCl, 1 mM DTT, 0.2 mg/mL BSA, 0.02% Triton X-100, 2% milk, 0.4 mg/mL salmon testes DNA; 1 h; temperature not stated; high values mean tight binding; double strand, one strand shown; sequences stand for … in GCCTAGCAC…GTGCTAGGTCTTGATTCGCTTGACGCTGCTG
As for GGGAAGGGGAAGTGAGGAGT, the binding signal is 5.62 z-score.

ACAAAGAGGAACTGTGCCCC yielded a binding signal of 4.81 z-score.

With GAAAACAGGAAGTGTTGGTG, the binding signal is 7.27 z-score.

As for AACAACAGGAAGTGGCTCCT, the binding signal was 4.58 z-score.

TGGGAGAGGAAGTGATGAGC showed a binding signal of 4.16 z-score.

As to GAAAGCAGGAAGTGTGTTAT, the binding signal is 4.53 z-score.

Sequence GAAAAGAGGAACCGTATGGT returned a binding signal of 6.29 z-score.

Consider AAAAAGAGGAAGGGAGTAGA, for which the binding signal came out at 5.71 z-score.

For CAGATGAGGAAATGGAGTTT, the binding signal came to 2.85 z-score.

With AAAAAGAGGAAGAGGAGGAG, the binding signal is 6.06 z-score.

Consider AAAAAAAGGAAGTGCTTCAA, for which the binding signal worked out at 7.04 z-score.

Sequence TGGGGGAGGAAGTGAGAGAC gave a binding signal of 2.96 z-score.

As for GGGAGGAGGAAGTGCAGGGG, the binding signal worked out at 4.32 z-score.

Sequence ACAAAAAGGAACTGTGCCGC returned a binding signal of 1.82 z-score.

TGGATGAGGAACTGGGGCCC returned a binding signal of 3.03 z-score.

Sequence GCAAAGGGGAACTGGACTGT yielded a binding signal of 3.71 z-score.

Turning to TGAAAGAGGAAGGGCAACCA, the binding signal was 3.49 z-score.

For the sequence AAAAAAGGGAAGTGATGTAC, the binding signal is 7 z-score.

ACGATGAGGAAGTGGTTAGT came in with a binding signal of 6.1 z-score.

In the case of GTTATGAGGAAGTCTGAATA, the binding signal worked out at 4.65 z-score.

CAAAAGAGGAACTCTTTGGT showed a binding signal of 6.97 z-score.

On to GTTAAAGGGAAGTCCCCAAA, for which the binding signal worked out at 3.24 z-score.

Sequence AGAAAAAGGAAGTGGATTAA showed a binding signal of 6.12 z-score.

In turn, AAAAAAAGGAAGTGATGTAC registered a binding signal of 6.52 z-score.

AAGAAGAGGAAGTCAGATCA showed a binding signal of 6.38 z-score.

For GATAAGAGGAAGTACTCTGT, the binding signal was 6.76 z-score.

In the case of GGAAAAAGGAAGTCCTGTCA, the binding signal is 5.19 z-score.

In turn, CAAATGAGGAACTGCTGCGG returned a binding signal of 6.07 z-score.

In turn, CAAAAGAGGAAGAGTCTGAC came in with a binding signal of 5.02 z-score.

CAAATGCGGAACTGATGCGG registered a binding signal of 6.2 z-score.

The sequence TGAAAGAGGAAGTCCCTTCT gave a binding signal of 7.38 z-score.

In the case of GTATTCAGGAACTACTGTGC, the binding signal amounted to 2.47 z-score.

Sequence AGGAGGAGGAAGTGGAGAGT had a binding signal of 4.43 z-score.

In turn, AAAATCAGGAAGTGTTTGAG displayed a binding signal of 6.53 z-score.

In turn, GCAAAGGGGAAGTGGAGACT registered a binding signal of 6.17 z-score.

Regarding CGAAAAGGGAAGTGGATGCT, the binding signal was found to be 6.74 z-score.

The sequence CGAATGAGGAACTGATGCGG had a binding signal of 5.88 z-score.

GATAAGAGGAAGTCCTCGGT registered a binding signal of 6.42 z-score.

The sequence GAAAGGAGGAAGTGGGAAGG had a binding signal of 6.39 z-score.

In turn, GATAAGAGGAAGTCTTCTGT displayed a binding signal of 6.29 z-score.

A further assay concerns the target T1, FLI1 (endogenous, THP-1 nuclear extract) (UniProt Q01543).
T1 sequence: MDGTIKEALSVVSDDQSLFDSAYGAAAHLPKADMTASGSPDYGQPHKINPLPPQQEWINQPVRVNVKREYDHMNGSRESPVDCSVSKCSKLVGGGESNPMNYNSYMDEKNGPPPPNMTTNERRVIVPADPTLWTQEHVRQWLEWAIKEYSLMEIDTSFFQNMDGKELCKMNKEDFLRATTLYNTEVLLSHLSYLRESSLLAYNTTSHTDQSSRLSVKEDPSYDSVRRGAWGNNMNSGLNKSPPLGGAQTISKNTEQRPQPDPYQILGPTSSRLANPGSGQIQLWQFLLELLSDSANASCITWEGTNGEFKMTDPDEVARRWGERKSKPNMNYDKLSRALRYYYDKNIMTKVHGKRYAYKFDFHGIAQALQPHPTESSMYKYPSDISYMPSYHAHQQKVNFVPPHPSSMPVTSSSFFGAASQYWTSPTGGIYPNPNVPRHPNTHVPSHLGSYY
Described as above. The following applies: 20 mM HEPES pH 7.9, 100 mM NaCl, 1 mM DTT, 0.2 mg/mL BSA, 0.02% Triton X-100, 2% milk, 0.4 mg/mL salmon testes DNA; 1 h; temperature not stated; high values mean tight binding; double strand, one strand shown; sequences stand for … in GCCTAGCAC…GTGCTAGGTCTTGATTCGCTTGACGCTGCTG
GGGAAGGGGAAGTGAGGAGT displayed a binding signal of 2.54 z-score.

Take ACAAAGAGGAACTGTGCCCC: the binding signal was 1.55 z-score.

Sequence GAAAACAGGAAGTGTTGGTG yielded a binding signal of 5.11 z-score.

AACAACAGGAAGTGGCTCCT yielded a binding signal of 5.13 z-score.

TGGGAGAGGAAGTGATGAGC displayed a binding signal of 2.72 z-score.

In the case of GAAAGCAGGAAGTGTGTTAT, the binding signal was determined as 4.08 z-score.

GAAAAGAGGAACCGTATGGT had a binding signal of 1.4 z-score.

AAAAAGAGGAAGGGAGTAGA had a binding signal of 2.18 z-score.

Regarding CAGATGAGGAAATGGAGTTT, the binding signal worked out at 2.19 z-score.

For AAAAAGAGGAAGAGGAGGAG, the binding signal came to 1.67 z-score.

With AAAAAAAGGAAGTGCTTCAA, the binding signal stood at 3.47 z-score.

TGGGGGAGGAAGTGAGAGAC: the binding signal turned out to be 2.74 z-score.

Take GGGAGGAGGAAGTGCAGGGG: the binding signal was found to be 2.42 z-score.

As to ACAAAAAGGAACTGTGCCGC, the binding signal is 0.856 z-score.

In turn, TGGATGAGGAACTGGGGCCC showed a binding signal of 0.437 z-score.

As for GCAAAGGGGAACTGGACTGT, the binding signal was found to be 1.23 z-score.

TGAAAGAGGAAGGGCAACCA gave a binding signal of 1.17 z-score.

Sequence AAAAAAGGGAAGTGATGTAC showed a binding signal of 3.34 z-score.

Sequence ACGATGAGGAAGTGGTTAGT showed a binding signal of 2.8 z-score.

The sequence GTTATGAGGAAGTCTGAATA yielded a binding signal of 2.02 z-score.

On to CAAAAGAGGAACTCTTTGGT, for which the binding signal was determined as 2.3 z-score.

GTTAAAGGGAAGTCCCCAAA registered a binding signal of 1.37 z-score.

The sequence AGAAAAAGGAAGTGGATTAA displayed a binding signal of 3.22 z-score.

AAAAAAAGGAAGTGATGTAC came in with a binding signal of 3.06 z-score.

As for AAGAAGAGGAAGTCAGATCA, the binding signal was determined as 3.14 z-score.

The sequence GATAAGAGGAAGTACTCTGT registered a binding signal of 3.35 z-score.

GGAAAAAGGAAGTCCTGTCA showed a binding signal of 2.64 z-score.

Sequence CAAATGAGGAACTGCTGCGG showed a binding signal of 2.62 z-score.

CAAAAGAGGAAGAGTCTGAC gave a binding signal of 1.74 z-score.

On to CAAATGCGGAACTGATGCGG, for which the binding signal was 2.47 z-score.

With TGAAAGAGGAAGTCCCTTCT, the binding signal stood at 3.27 z-score.

As to GTATTCAGGAACTACTGTGC, the binding signal came out at 1.22 z-score.

Turning to AGGAGGAGGAAGTGGAGAGT, the binding signal amounted to 2.53 z-score.

With AAAATCAGGAAGTGTTTGAG, the binding signal was 3.18 z-score.

For GCAAAGGGGAAGTGGAGACT, the binding signal turned out to be 2.81 z-score.

CGAAAAGGGAAGTGGATGCT returned a binding signal of 2.94 z-score.

For CGAATGAGGAACTGATGCGG, the binding signal was determined as 1.56 z-score.

The sequence GATAAGAGGAAGTCCTCGGT showed a binding signal of 2.98 z-score.

Sequence GAAAGGAGGAAGTGGGAAGG displayed a binding signal of 3.03 z-score.

In turn, GATAAGAGGAAGTCTTCTGT gave a binding signal of 3.12 z-score.
